“And” between values parts separate entries of the source, which are not always exact repeats. Identical values can stand only once. The whole screen tested about 200,000 compounds, of which about 4,500 (2.2%) were called active. Inconclusive means that the source gave no clear call. Such entries were picked first, then a sample of the others. Calls come from the whole dose curve; as a rule, active = well fitted inhibition curve with a large enough effect; inconclusive = small, poorly fitted or top-dose-only effect, or effect the other way; inactive = flat fitted curve, though single readings scatter. Where the call is inconclusive, the potency comes from a doubtful curve fit.
These molecules were tested against Cruzipain (Trypanosoma cruzi) (UniProt P25779) (assay: qHTS Assay for Promiscuous and Specific Inhibitors of Cruzain (without detergent)). Settings: purified cruzain, Z-FR-AMC fluorescence, no detergent.
Procedure, shortened: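 Purified cruzain at 1.5 nM, pre-incubated 15 min with compound at room temperature in 100 mM sodium acetate pH 5.5, 5 mM DTT, 0.00005% Triton X-100. Reaction started with 2 uM Z-FR-AMC; AMC fluorescence increase over 60 s gives rate.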
Note: nearly all actives have a fitted effect of over 40% in size.
Potency is the fitted concentration of half-maximal effect; tags give direction and shape of the fitted curve.
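Throughout, for max response, negative = inhibition: plate controls were enzyme without inhibitor for no effect and buffer without enzyme for full effect.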

Chain of UniProt P25779 (P25779 whole entry, looked up): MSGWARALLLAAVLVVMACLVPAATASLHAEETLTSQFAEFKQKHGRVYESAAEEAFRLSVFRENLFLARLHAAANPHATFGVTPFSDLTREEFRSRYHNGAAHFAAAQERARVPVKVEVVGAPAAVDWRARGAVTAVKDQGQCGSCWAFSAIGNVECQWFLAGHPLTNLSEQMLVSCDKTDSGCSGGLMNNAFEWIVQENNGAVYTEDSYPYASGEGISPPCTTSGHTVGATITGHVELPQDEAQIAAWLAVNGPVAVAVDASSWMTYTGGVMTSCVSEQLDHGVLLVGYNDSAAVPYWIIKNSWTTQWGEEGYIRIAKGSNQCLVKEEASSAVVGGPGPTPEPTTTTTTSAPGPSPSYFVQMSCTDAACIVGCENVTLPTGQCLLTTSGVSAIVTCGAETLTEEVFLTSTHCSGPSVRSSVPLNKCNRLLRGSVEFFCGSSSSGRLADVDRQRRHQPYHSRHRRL

**Q.** Which Potency does the source give for `CSc1ccc(/C=C(\NC(=O)c2ccc(C)cc2)C(=O)Nc2cccc(C)c2)cc1` here?
**A.** The Potency was active: 7.94 µM.

**Q.** With `CCOC(=O)N1CCN(C(=O)CCc2c(C)nc3c(c(C)nn3-c3ccc(C)c(C)c3)c2C)CC1` as the molecule, how does the Potency read?
**A.** The Potency was inconclusive: 12.6 µM [activator, partial curve].

**Q.** With `COc1ccccc1CN1CCCC2(CCN(C(=O)c3csnn3)CC2)C1` as the molecule, how does the max response, negative = inhibition read?
**A.** The max response, negative = inhibition was inactive: -16.4%.

**Q.** For `CCOC(=O)c1c(NC(=O)CSc2nc3nc(C)cc(C)n3n2)sc(CC)c1C`, which Potency is on record?
**A.** Its Potency is inconclusive: 20 µM [activator, partial curve].

**Q.** For `O=C(COc1ccc2ccccc2c1)Nc1ccc(S(=O)(=O)N2CCCCCC2)cc1`, which Potency is on record?
**A.** The Potency was inconclusive: 20 µM [inhibitor, partial curve, poor fit].

**Q.** Which Potency does the source give for `CCOC(=O)c1cc2c(=O)n3ccccc3nc2n(Cc2ccccc2)c1=N` here?
**A.** The Potency was inconclusive: 31.6 µM [inhibitor, single point].

**Q.** Which max response, negative = inhibition does the source give for `COc1cc(C2CC(=O)c3cnc(N4CCN(Cc5ccccc5)CC4)nc3C2)cc(OC)c1OC` (configuration not stated) here?
**A.** Its max response, negative = inhibition is inactive: 10.6%.

**Q.** `COc1ccc2c(c1)-c1c(sn(-c3ccccc3)c1=S)C(C)(C)N2` was tested. Which Potency did it give?
**A.** The Potency was inconclusive: 25.1 µM [inhibitor, single point].

**Q.** Which Potency does the source give for `CCOc1cc(CNc2ccc(N3CCOCC3)cc2)cc(Br)c1OCC` here?
**A.** Its Potency is inconclusive: 39.8 µM [activator, single point].

**Q.** How did the Potency turn out when `COc1ccc(C2=CC(c3c(C)nn(-c4ccccc4)c3Cl)n3nnnc3N2)cc1OC` (configuration not stated) was run?
**A.** Its Potency is inconclusive: 39.8 µM [activator, single point].

**Q.** For `C1CCN(c2nc3nonc3nc2N2CCCCC2)CC1`, which max response, negative = inhibition is on record?
**A.** The max response, negative = inhibition was inactive: -4.47%.

**Q.** With `CCCc1cc(=O)oc2cc(OCC(=O)NCc3cccs3)ccc12` as the molecule, how does the Potency read?
**A.** Its Potency is inconclusive: 25.1 µM [inhibitor, single point].

**Q.** `COc1ccc(N2CCN(C(=O)c3cnc(N4CCOCC4)c4ccccc34)CC2)cc1` was tested. Which Potency did it give?
**A.** Its Potency is inconclusive: 39.8 µM [activator, single point].

**Q.** With `Cc1ccc(NCc2cc3cc4c(cc3n(CC(=O)Nc3ccc(C)cc3)c2=O)OCCO4)cc1` as the molecule, how does the Potency read?
**A.** Its Potency is inconclusive: 31.6 µM [inhibitor, single point].

**Q.** For `CCCCn1c(SCC(=O)c2ccccc2)nc2sc3c(c2c1=O)CCCC3`, which max response, negative = inhibition is on record?
**A.** Its max response, negative = inhibition is inactive: -10.7%.

**Q.** `COc1ccc(C(C(=O)NC2CCCC2)N(C(=O)c2ccco2)c2ccc(OC)c(OC)c2)cc1` (configuration not stated) was tested. Which Potency did it give?
**A.** The Potency was inconclusive: 39.8 µM [activator, single point].

**Q.** Which Potency does the source give for `CCOc1ccccc1C1C(C(=O)Nc2ccccc2)=C(C)Nc2nc(-c3ccccc3)nn21` (configuration not stated) here?
**A.** Its Potency is inconclusive: 31.6 µM [activator, single point].

**Q.** How did the max response, negative = inhibition turn out when `CCOc1ccccc1Oc1ncnc2c1oc1ccccc12` was run?
**A.** Its max response, negative = inhibition is inactive: 15%.

**Q.** How did the max response, negative = inhibition turn out when `CCOc1ccc(S(=O)(=O)c2cc3cccc(OCC)c3oc2=O)cc1` was run?
**A.** Its max response, negative = inhibition is inactive: -1.11%.

**Q.** For `O=C(c1ccco1)N1CCN(c2ncnc3c2[nH]c2ccc(Cl)cc23)CC1`, which Potency is on record?
**A.** Its Potency is inconclusive: 1.26 µM [inhibitor, full curve, poor fit].

**Q.** How did the Potency turn out when `CCOc1ccc(CNc2cc(C)nc3nc(-c4cccc(C)c4)nn23)cc1OC` was run?
**A.** Its Potency is inconclusive: 39.8 µM [activator, single point].

**Q.** For `CNC(=O)CN(c1ccc2c(c1)OCCO2)S(C)(=O)=O`, which max response, negative = inhibition is on record?
**A.** Its max response, negative = inhibition is inactive: -8.99%.

**Q.** How did the Potency turn out when `COC(=O)C1OC(=O)C2OC23[C@]2(C)C(O)CC4C(C)(C)C(OC(C)=O)CC(OC(C)=O)[C@@]4(C)C2CC[C@@]13C` (some centres not stated) was run?
**A.** Its Potency is inconclusive: 31.6 µM [activator, single point] and inconclusive: 39.8 µM [activator, single point].

**Q.** Which Potency does the source give for `c1csc(-c2ccnc3ncnn23)c1` here?
**A.** Its Potency is inconclusive: 39.8 µM [activator, single point].

**Q.** For `O=S(=O)(c1ccccc1)c1nc(-c2ccco2)oc1Nc1ccccc1`, which Potency is on record?
**A.** The Potency was inconclusive: 39.8 µM [inhibitor, single point].

**Q.** How did the max response, negative = inhibition turn out when `N#CC(=NCCO)C1=C(O)c2ccccc2C1=O` was run?
**A.** The max response, negative = inhibition was inactive: -1.52%.

**Q.** Which Potency does the source give for `CCC1SC2=NC(C)=C(C(=O)OCCOC)C(c3ccc(C(=O)OC)cc3)N2C1=O` (configuration not stated) here?
**A.** The Potency was inconclusive: 39.8 µM [activator, single point].

**Q.** For `Cc1cc(C(=O)COC(=O)CC2Sc3ccccc3NC2=O)c(C)n1-c1ccc(Br)cc1` (configuration not stated), which Potency is on record?
**A.** Its Potency is active: 3.98 µM.

**Q.** How did the Potency turn out when `CC(C)C(NS(=O)(=O)c1c(Cl)cccc1Cl)C(=O)OCC(=O)c1c[nH]c2ccccc12` (configuration not stated) was run?
**A.** Its Potency is active: 31.6 µM.

**Q.** How did the Potency turn out when `COC(=O)c1c(NC(=O)CSc2nnc(-c3cccnc3)n2Cc2ccco2)sc(C)c1C` was run?
**A.** The Potency was inconclusive: 31.6 µM [activator, single point].

**Q.** How did the max response, negative = inhibition turn out when `Cc1ccc(CNS(=O)(=O)c2c(C)nc3sc(C)cn3c2=O)cc1` was run?
**A.** The max response, negative = inhibition was inactive: -4.76%.

**Q.** For `Cc1n[nH]c(C)c1S(=O)(=O)N1CCCC(C(=O)N2CCN(c3ccc(Cl)cc3)CC2)C1` (configuration not stated), which Potency is on record?
**A.** Its Potency is inconclusive: 31.6 µM [activator, partial curve].

**Q.** Which Potency does the source give for `Cc1cc(N2CCN(C(=O)c3ccco3)CC2)n2nc(-c3cccc(F)c3)cc2n1` here?
**A.** The Potency was inconclusive: 25.1 µM [activator, single point].

**Q.** How did the Potency turn out when `Cc1nc2c(c(C)nn2-c2ccccc2)c(C)c1CCC(=O)N1CCC2(CC1)OCCO2` was run?
**A.** Its Potency is inconclusive: 25.1 µM [activator, single point].

**Q.** For `N=C(N)c1ccc(OCCCCCOc2ccc(C(=N)N)cc2)cc1` (tested in a mixture with another compound), which max response, negative = inhibition is on record?
**A.** Its max response, negative = inhibition is inactive: -4.36%.

**Q.** Which Potency does the source give for `COc1cc(NC(=O)c2ccc(-c3nc(CSc4ccccc4)c(C)o3)cc2)cc(OC)c1` here?
**A.** The Potency was inconclusive: 20 µM [inhibitor, single point].

**Q.** `CC1=C(C(=O)Nc2ccccc2)C(C(C)C)n2nc(SCc3ccccc3C)nc2N1` (configuration not stated) was tested. Which Potency did it give?
**A.** Its Potency is inconclusive: 3.98 µM [inhibitor, single point].

**Q.** `CCOc1ccc(-c2cn3c(n2)sc2cc(C(=O)NCCCN4CCCCC4)ccc23)cc1` was tested. Which Potency did it give?
**A.** The Potency was active: 3.98 µM.

**Q.** For `O=C(Nc1nc2ccc(F)cc2s1)c1cccc(S(=O)(=O)N2CCc3ccccc32)c1`, which Potency is on record?
**A.** Its Potency is active: 7.94 µM.

**Q.** Which max response, negative = inhibition does the source give for `COc1cc(OC)cc(-n2c(=O)c3ccccc3n(Cc3ccccc3C#N)c2=O)c1` here?
**A.** The max response, negative = inhibition was inactive: -9.17%.

**Q.** Which Potency does the source give for `COc1cc2c(=O)n(Cc3ccco3)c(=O)n(CC(=O)c3ccc(Br)cc3)c2cc1OC` here?
**A.** Its Potency is inconclusive: 7.94 µM [activator, partial curve].

**Q.** Which Potency does the source give for `COc1ccccc1C(=O)NCC(c1ccc(N(C)C)cc1)N1CCc2ccccc21` (configuration not stated) here?
**A.** Its Potency is inconclusive: 31.6 µM [inhibitor, single point].

**Q.** With `COc1ccccc1N1CCN(C(=O)CSc2ncccc2-c2nc3ccccc3[nH]2)CC1` as the molecule, how does the Potency read?
**A.** Its Potency is inconclusive: 39.8 µM [activator, single point].

**Q.** Which Potency does the source give for `COc1cc2c(cc1NC(=O)CCCCCN1C(=O)CCC1=O)oc1ccccc12` here?
**A.** The Potency was inconclusive: 39.8 µM [activator, single point].

**Q.** For `COc1ccc(N(CC(=O)NCCc2ccc(C)cc2)S(=O)(=O)c2c(C)nn(C)c2C)cc1`, which Potency is on record?
**A.** Its Potency is inconclusive: 31.6 µM [activator, single point].

**Q.** `CC1(C)CC(=O)c2cc(NC(=O)c3ccccc3)c(=O)oc2C1` was tested. Which max response, negative = inhibition did it give?
**A.** Its max response, negative = inhibition is inactive: -9.89%.

**Q.** Which Potency does the source give for `COc1ccc(C2C(C(=O)OCC(=O)N3CCCCC3)CCC(=O)N2c2ccc(OC)cc2)cc1` (configuration not stated) here?
**A.** Its Potency is inconclusive: 31.6 µM [activator, single point].

**Q.** With `COc1cc(/C=C2\SC(=Nc3ccccc3)N(Cc3ccco3)C2=O)ccc1OC(C)C(=O)O` (configuration not stated) as the molecule, how does the Potency read?
**A.** Its Potency is inconclusive: 5.01 µM [activator, single point].

**Q.** How did the Potency turn out when `Cc1ccc(Cl)c(NC(=O)COC(=O)CNS(=O)(=O)/C=C/c2ccccc2)c1Cl` was run?
**A.** Its Potency is inconclusive: 25.1 µM [inhibitor, single point].

**Q.** With `CN(C)CC(=O)N1c2ccccc2CCc2ccc(NC(=O)c3ccc(N)cc3)cc21` as the molecule, how does the max response, negative = inhibition read?
**A.** The max response, negative = inhibition was inactive: 3.35%.

**Q.** `COCCCNC(=O)c1c(NC(=O)c2cccs2)sc2c1CCCC2` was tested. Which Potency did it give?
**A.** The Potency was inconclusive: 39.8 µM [activator, single point].

**Q.** With `COc1cccc(C2C3=C(CCCC3=O)Nc3nc(-c4cc(OC)c(OC)c(OC)c4)nn32)c1` (configuration not stated) as the molecule, how does the Potency read?
**A.** Its Potency is inconclusive: 31.6 µM [activator, single point].

**Q.** How did the Potency turn out when `CCn1cc2nc(SCc3cc(C)ccc3C)n(CCc3ccccc3)c(=O)c2n1` was run?
**A.** The Potency was inconclusive: 6.31 µM [inhibitor, single point].

**Q.** `CCOc1ccc2c(c1)C(c1ccc(C)cc1)=NNC(c1ccc(OC)cc1)=N2` was tested. Which Potency did it give?
**A.** The Potency was active: 15.8 µM.

**Q.** With `COc1ccc(C2=NN(c3nc4ccccc4s3)C(=O)/C2=C\N(C)C)cc1` as the molecule, how does the Potency read?
**A.** The Potency was inconclusive: 31.6 µM [activator, single point].

**Q.** How did the Potency turn out when `C=CCOC(=O)c1cc(-c2ccc(/C=C3\C(=O)NC(=O)C(C#N)=C3C)o2)ccc1Cl` was run?
**A.** The Potency was inconclusive: 12.6 µM [activator, partial curve].

**Q.** For `CC(=O)c1cccc(N(C(=O)CS(=O)CC(=O)Nc2ccc(F)cc2)C(C(=O)NC2CCCCC2)c2ccc(C)o2)c1` (configuration not stated), which Potency is on record?
**A.** Its Potency is inconclusive: 25.1 µM [activator, single point].

**Q.** With `O=C(/C=C\c1ccc2c(c1)OCO2)Nc1c2c(nn1-c1ccc(Cl)cc1)CSC2` as the molecule, how does the Potency read?
**A.** The Potency was active: 25.1 µM.

**Q.** With `CCN(CC)S(=O)(=O)c1ccc(-c2nnc(SCc3nnc(-c4ccccc4)o3)o2)cc1` as the molecule, how does the Potency read?
**A.** Its Potency is active: 25.1 µM.

**Q.** How did the Potency turn out when `CCc1cc2ccc(C)cc2nc1SCC(=O)N1CCN(C(=O)c2ccco2)CC1` was run?
**A.** The Potency was inconclusive: 31.6 µM [activator, single point].

**Q.** For `CC(=O)[C@@]1(O)CC[C@H]2[C@@H]3CC=C4C[C@@H](O)CC[C@]4(C)[C@H]3CC[C@@]21C`, which Potency is on record?
**A.** The Potency was inconclusive: 25.1 µM [inhibitor, single point].

**Q.** With `Cc1nn2c(NCCOCCO)c3c(nc2c1-c1ccccc1)CCCC3` as the molecule, how does the max response, negative = inhibition read?
**A.** The max response, negative = inhibition was inactive: -3.62%.
